Laboratory results: patent US20260297081A1, “COMPOUNDS AND METHODS OF TREATING CANCERS” (Cullgen Inc., priority 2023, published 2026)
The name of at least one read-out is uncertain.

Tested on: cyclin D1
Assay: HiBiT detection of HiBiT-tagged cyclin D1 protein level in MCF7 cells, 16 hours (Table 8)
Type: cell-based
Conditions: MCF7 cells stably expressing HiBiT tagged target proteins

Compound | % Cyclin D1 Relative Level (10 nM) | % Cyclin D1 Relative Level (100 nM)
CC(=O)c1c(C)c2cnc(Nc3ccc(N4CCN(C5CCN(C(=O)C6(O)CCC(Nc7nc(NC(C)C)ccc7C(=O)Nc7ccc(N(C)C)nn7)CC6)C5)CC4)cn3)nc2n(C2CCCC2)c1=O (stereo not drawn) [CPD-574, 2-((cis-4-(3-(4-(6-((6-acetyl-8-cyclopentyl-5-methyl-7-oxo-7,8-dihydropyrido[2,3-d]pyrimidin-2-yl)amino)pyridin-3-yl)piperazin-1-yl)pyrrolidine-1-carbonyl)-4-hydroxycyclohexyl)amino)-N-(6-(dimethylamino)pyridazin-3-yl)-6-(isopropylamino)nicotinamide] | C (Relative protein level >85%) | C (Relative protein level >85%)
CC(=O)c1c(C)c2cnc(Nc3ccc(N4CCN(C5CCN(C(=O)[C@H]6CC[C@H](Nc7nc(C)ccc7C(=O)Nc7ccc(N(C)C)nn7)CC6)C5)CC4)cn3)nc2n(C2CCCC2)c1=O (stereo partly drawn) [CPD-576, 2-((trans-4-(3-(4-(6-((6-acetyl-8-cyclopentyl-5-methyl-7-oxo-7,8-dihydropyrido[2,3-d]pyrimidin-2-yl)amino)pyridin-3-yl)piperazin-1-yl)pyrrolidine-1-carbonyl)cyclohexyl)amino)-N-(6-(dimethylamino)pyridazin-3-yl)-6-methylnicotinamide] | B (55%< Relative protein level ≤85%) | B (55%< Relative protein level ≤85%)
CCc1ccc(C(=O)Nc2ccc(N(C)C)nn2)c(NC23CC(C(=O)N4CCC(N5CCN(c6ccc(Nc7ncc8c(C)c(C(C)=O)c(=O)n(C9CCCC9)c8n7)nc6)CC5)C4)(C2)C3)n1 (stereo not shown) [CPD-577, 2-((3-(3-(4-(6-((6-acetyl-8-cyclopentyl-5-methyl-7-oxo-7,8-dihydropyrido[2,3-d]pyrimidin-2-yl)amino)pyridin-3-yl)piperazin-1-yl)pyrrolidine-1-carbonyl)bicyclo[1.1.1]pentan-1-yl)amino)-N-(6-(dimethylamino)pyridazin-3-yl)-6-ethylnicotinamide] | C (Relative protein level >85%) | B (55%< Relative protein level ≤85%)
CCc1ccc(C(=O)Nc2ccc(N(C)C)nn2)c(NC2CC3(CC(NC(=O)CN4CCN(Cc5ccc(Nc6ncc7c(C)c(C(C)=O)c(=O)n(C8CCCC8)c7n6)nc5)CC4)C3)C2)n1 (stereo not shown) [CPD-578, 2-((6-(2-(4-((6-((6-acetyl-8-cyclopentyl-5-methyl-7-oxo-7,8-dihydropyrido[2,3-d]pyrimidin-2-yl)amino)pyridin-3-yl)methyl)piperazin-1-yl)acetamido)spiro[3.3]heptan-2-yl)amino)-N-(6-(dimethylamino)pyridazin-3-yl)-6-ethylnicotinamide] | B (55%< Relative protein level ≤85%) | B (55%< Relative protein level ≤85%)
CC(=O)c1c(C)c2cnc(Nc3ccc(CN4CCN(CC(=O)NC5CC6(C5)CC(Nc5nc(C(C)C)ccc5C(=O)Nc5ccc(N(C)C)nn5)C6)CC4)cn3)nc2n(C2CCCC2)c1=O (stereo not shown) [CPD-579, 2-((6-(2-(4-((6-((6-acetyl-8-cyclopentyl-5-methyl-7-oxo-7,8-dihydropyrido[2,3-d]pyrimidin-2-yl)amino)pyridin-3-yl)methyl)piperazin-1-yl)acetamido)spiro[3.3]heptan-2-yl)amino)-N-(6-(dimethylamino)pyridazin-3-yl)-6-isopropylnicotinamide] | B (55%< Relative protein level ≤85%) | B (55%< Relative protein level ≤85%)
CC(=O)c1c(C)c2cnc(Nc3ccc(N4CCN(C5CCN(C(=O)C67CC(Nc8nc(C(C)C)ccc8C(=O)Nc8ccc(N(C)C)nn8)(C6)C7)C5)CC4)cn3)nc2n(C2CCCC2)c1=O (stereo not shown) [CPD-580, 2-((3-(3-(4-(6-((6-acetyl-8-cyclopentyl-5-methyl-7-oxo-7,8-dihydropyrido[2,3-d]pyrimidin-2-yl)amino)pyridin-3-yl)piperazin-1-yl)pyrrolidine-1-carbonyl)bicyclo[1.1.1]pentan-1-yl)amino)-N-(6-(dimethylamino)pyridazin-3-yl)-6-isopropylnicotinamide] | C (Relative protein level >85%) | B (55%< Relative protein level ≤85%)
CC(=O)c1c(C)c2cnc(Nc3ccc(CN4CCN(CC(=O)N5CCC6(CCC(Nc7nc(C8CC8)ccc7C(=O)Nc7ccc(N(C)C)nn7)C6)C5)CC4)cn3)nc2n(C2CCCC2)c1=O (stereo not shown) [CPD-581, 2-((2-(2-(4-((6-((6-acetyl-8-cyclopentyl-5-methyl-7-oxo-7,8-dihydropyrido[2,3-d]pyrimidin-2-yl)amino)pyridin-3-yl)methyl)piperazin-1-yl)acetyl)-2-azaspiro[4.4]nonan-7-yl)amino)-6-cyclopropyl-N-(6-(dimethylamino)pyridazin-3-yl)nicotinamide] | B (55%< Relative protein level ≤85%) | B (55%< Relative protein level ≤85%)
CCc1ccc(C(=O)Nc2ccc(N(C)C)nn2)c(NC2CCC3(CCN(C(=O)CN4CCN(Cc5ccc(Nc6ncc7c(C)c(C(C)=O)c(=O)n(C8CCCC8)c7n6)nc5)CC4)C3)C2)n1 (stereo not shown) [CPD-582, 2-((2-(2-(4-((6-((6-acetyl-8-cyclopentyl-5-methyl-7-oxo-7,8-dihydropyrido[2,3-d]pyrimidin-2-yl)amino)pyridin-3-yl)methyl)piperazin-1-yl)acetyl)-2-azaspiro[4.4]nonan-7-yl)amino)-N-(6-(dimethylamino)pyridazin-3-yl)-6-ethylnicotinamide] | B (55%< Relative protein level ≤85%) | B (55%< Relative protein level ≤85%)
CC(=O)c1c(C)c2cnc(Nc3ccc(CN4CCN(CC(=O)N5CCC6(CCC(Nc7nc(C(C)C)ccc7C(=O)Nc7ccc(N(C)C)nn7)C6)C5)CC4)cn3)nc2n(C2CCCC2)c1=O (stereo not shown) [CPD-583, 2-((2-(2-(4-((6-((6-acetyl-8-cyclopentyl-5-methyl-7-oxo-7,8-dihydropyrido[2,3-d]pyrimidin-2-yl)amino)pyridin-3-yl)methyl)piperazin-1-yl)acetyl)-2-azaspiro[4.4]nonan-7-yl)amino)-N-(6-(dimethylamino)pyridazin-3-yl)-6-isopropylnicotinamide] | B (55%< Relative protein level ≤85%) | B (55%< Relative protein level ≤85%)
CC(=O)c1c(C)c2cnc(Nc3ccc(CN4CCN(CC(=O)NC5CC6(C5)CC(Nc5nc(NC(C)C)ccc5C(=O)Nc5cc7n(n5)CCC7)C6)CC4)cn3)nc2n(C2CCCC2)c1=O (stereo not shown) [CPD-584, 2-((6-(2-(4-((6-((6-acetyl-8-cyclopentyl-5-methyl-7-oxo-7,8-dihydropyrido[2,3-d]pyrimidin-2-yl)amino)pyridin-3-yl)methyl)piperazin-1-yl)acetamido)spiro[3.3]heptan-2-yl)amino)-N-(5,6-dihydro-4H-pyrrolo[1,2-b]pyrazol-2-yl)-6-(isopropylamino) nicotinamide] | B (55%< Relative protein level ≤85%) | B (55%< Relative protein level ≤85%)
CC(=O)c1c(C)c2cnc(Nc3ccc(CN4CCN(C(C)C(=O)NC5CC6(C5)CC(Nc5nc(NC(C)C)ccc5C(=O)Nc5ccc(N(C)C)nn5)C6)CC4)cn3)nc2n(C2CCCC2)c1=O (stereo not shown) [CPD-585, 2-((6-(2-(4-((6-((6-acetyl-8-cyclopentyl-5-methyl-7-oxo-7,8-dihydropyrido[2,3-d]pyrimidin-2-yl)amino)pyridin-3-yl)methyl)piperazin-1-yl)propanamido)spiro[3.3]heptan-2-yl)amino)-N-(6-(dimethylamino)pyridazin-3-yl)-6-(isopropylamino)nicotinamide] | B (55%< Relative protein level ≤85%) | B (55%< Relative protein level ≤85%)
CC(=O)c1c(C)c2cnc(Nc3ccc(C(C)N4CCN(CC(=O)NC5CC6(C5)CC(Nc5nc(NC(C)C)ccc5C(=O)Nc5ccc(N(C)C)nn5)C6)CC4)cn3)nc2n(C2CCCC2)c1=O (stereo not shown) [CPD-586, 2-((6-(2-(4-(1-(6-((6-acetyl-8-cyclopentyl-5-methyl-7-oxo-7,8-dihydropyrido[2,3-d]pyrimidin-2-yl)amino)pyridin-3-yl)ethyl)piperazin-1-yl)acetamido)spiro[3.3]heptan-2-yl)amino)-N-(6-(dimethylamino)pyridazin-3-yl)-6-(isopropylamino)nicotinamide] | B (55%< Relative protein level ≤85%) | A (Relative protein level ≤55%)
CC(=O)c1c(C)c2cnc(Nc3ccc(N4CCN(C5CCN(C(=O)C67CC(Nc8nc(NC(C)C)ccc8C(=O)Nc8cc(C)n(C)n8)(C6)C7)C5)CC4)cn3)nc2n(C2CCCC2)c1=O (stereo not shown) [CPD-587, 2-((3-(3-(4-(6-((6-acetyl-8-cyclopentyl-5-methyl-7-oxo-7,8-dihydropyrido[2,3-d]pyrimidin-2-yl)amino)pyridin-3-yl)piperazin-1-yl)pyrrolidine-1-carbonyl)bicyclo[1.1.1]pentan-1-yl)amino)-N-(1,5-dimethyl-1H-pyrazol-3-yl)-6-(isopropylamino)nicotinamide] | B (55%< Relative protein level ≤85%) | B (55%< Relative protein level ≤85%)
CC(=O)c1c(C)c2cnc(Nc3ccc(N4CCN(C5CCN(C(=O)C67CC(Nc8nc(NC(C)C)ccc8C(=O)Nc8cn(C)c(C9CC9)n8)(C6)C7)C5)CC4)cn3)nc2n(C2CCCC2)c1=O (stereo not shown) [CPD-588, 2-((3-(3-(4-(6-((6-acetyl-8-cyclopentyl-5-methyl-7-oxo-7,8-dihydropyrido[2,3-d]pyrimidin-2-yl)amino)pyridin-3-yl)piperazin-1-yl)pyrrolidine-1-carbonyl)bicyclo[1.1.1]pentan-1-yl)amino)-N-(2-cyclopropyl-1-methyl-1H-imidazol-4-yl)-6-(isopropylamino)nicotinamide] | B (55%< Relative protein level ≤85%) | B (55%< Relative protein level ≤85%)
